Test results from publication PMC10382678.
No constants are given. Whether binding was seen depends on the method and setting. For part of these data: In cells and extracts the contact can be indirect. Some entries that bind do so weakly or less than the wild type. For part of these data: Tags and fused reporters may be left off the sequences shown. Each block holds one substance with its values, some of them ahead of it.

Tests used:
[1] = target: ectoLRP4-Myc (extracellular domain of rat LRP4 fused to one Myc tag followed by a 6xHis tag) (rat) (UniProt Q9QYP1); assay: pull-down; ectoLRP4-Myc, ectoLRP6-Myc or ectoMuSK-Myc from conditioned media immobilised on protein G magnetic beads precoated with anti-Myc; incubated with 0.25 Ellman units of sucrose gradient-purified AChE-ColQ (A12) or AChE (G1), 4 °C overnight; bound AChE activity measured by the Ellman method; only the binder purified
[2] = target: ectoLRP6-Myc (human LRP6-Myc with the intracellular and transmembrane domains deleted) (human) (UniProt O75581); assay: as above
[3] = target: T1, ectoMuSK-Myc (secreted Myc-tagged ectodomain of rat MuSK, Myc followed by 6xHis at the COOH terminus) (rat) (UniProt Q62838); assay: as above
T1 sequence: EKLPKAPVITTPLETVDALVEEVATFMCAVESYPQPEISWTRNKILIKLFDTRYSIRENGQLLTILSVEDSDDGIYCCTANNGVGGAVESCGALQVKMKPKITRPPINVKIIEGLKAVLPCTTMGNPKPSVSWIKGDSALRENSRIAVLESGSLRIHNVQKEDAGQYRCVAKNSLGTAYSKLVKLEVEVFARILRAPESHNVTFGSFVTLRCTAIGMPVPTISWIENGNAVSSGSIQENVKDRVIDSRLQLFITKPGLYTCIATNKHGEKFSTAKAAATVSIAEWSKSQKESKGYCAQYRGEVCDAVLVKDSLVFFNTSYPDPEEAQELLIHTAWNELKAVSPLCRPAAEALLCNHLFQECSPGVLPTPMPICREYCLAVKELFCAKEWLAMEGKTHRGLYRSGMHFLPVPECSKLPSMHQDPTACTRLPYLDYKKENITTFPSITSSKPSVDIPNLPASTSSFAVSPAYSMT

[4] = target: LRP4-Myc (rat low-density lipoprotein receptor-related protein 4 with a C-terminal Myc tag) (rat) (UniProt Q9QYP1); assay: co-IP; same experiment as in HEK 293T cells but in COS cells; data not shown
[5] = target: LRP4-Myc (rat low-density lipoprotein receptor-related protein 4 with a C-terminal Myc tag) (rat) (UniProt Q9QYP1); assay: co-IP; HEK 293T cells cotransfected with two constructs, lysed 48 h later in 50 mM Tris, 150 mM NaCl, 3 mM EDTA, 20 mM NaF, 1% Triton X-100, pH 7.4; IP with anti-Flag (ColQ-Flag) or anti-Myc antibodies and protein G Dynabeads, 3 h at 4 °C; Western immunoblot
[6] = target: endogenous LRP4 of ColQ-/- myotubes (UniProt Q8VI56); assay: co-IP; ColQ-/- myotubes transduced with rAAV2-ColQ-Myc, lysed about 4 days later; IP of endogenous LRP4 with polyclonal anti-LRP4 antibodies; blot with anti-Myc
[7] = target: ColQ-Flag (rat collagen Q, ColQ1a, with a Flag epitope after amino acid 26) (rat) (UniProt O35167); assay: co-IP; same experiment as in HEK 293T cells but in COS cells; data not shown
[8] = target: ColQ-Flag (rat collagen Q, ColQ1a, with a Flag epitope after amino acid 26) (rat) (UniProt O35167); assay: co-IP; HEK 293T cells cotransfected with ColQ-Flag, MuSK-HA and LRP4-Myc together; IP with anti-Flag; blot with anti-HA or anti-Myc; band intensities normalised to precipitated ColQ and compared with the cotransfection of two constructs
[9] = target: ColQ-Flag (rat collagen Q, ColQ1a, with a Flag epitope after amino acid 26) (rat) (UniProt O35167); assay: co-IP; HEK 293T cells cotransfected with two constructs, lysed 48 h later in 50 mM Tris, 150 mM NaCl, 3 mM EDTA, 20 mM NaF, 1% Triton X-100, pH 7.4; IP with anti-Flag (ColQ-Flag) or anti-Myc antibodies and protein G Dynabeads, 3 h at 4 °C; Western immunoblot
[10] = target: AChE-ColQ hetero-oligomers, A12 asymmetric forms (ColQ-Flag trimer with three AChE tetramers) (rat) (UniProt O35167+P37136); assay: ELISA; plate-binding assay with wells coated with sucrose gradient-purified A12 forms of AChE-ColQ-Flag; data not shown; only the target purified
[11] = target: ColQ-Flag (rat collagen Q, ColQ1a, with a Flag epitope after amino acid 26) (rat) (UniProt O35167); assay: ELISA; plate-binding assay, competition: ColQ-coated wells incubated with 25 nM ectoLRP4-AP with 500 nM neural agrin or BSA as control; the pair that is blocked
[12] = target: ColQ-Flag (rat collagen Q, ColQ1a, with a Flag epitope after amino acid 26) (rat) (UniProt O35167); assay: pull-down; ColQ-Flag from HEK 293T lysates immobilised on anti-Flag protein G magnetic beads; incubated with purified ectoLRP4-AP or with 500 nM His-tagged recombinant neural agrin, 4 °C overnight; Western immunoblot; only the binder purified
[13] = target: AdipoQ-Flag (Flag-tagged human adiponectin) (human) (UniProt Q15848); assay: ELISA; plate-binding assay (modified ELISA): ColQ-Flag or AdipoQ-Flag from HEK 293T lysates immobilised on anti-Flag precoated wells; AP or AP fusion proteins in conditioned media (10 to 100 nM, equal AP activity) in TBS-0.05% Tween, 1 mM MgCl2, overnight at 4 °C; bound AP activity read with pNPP at …
[14] = target: ColQ-Flag (rat collagen Q, ColQ1a, with a Flag epitope after amino acid 26) (rat) (UniProt O35167); assay: as above
[15] = target: ColQ-Flag (rat collagen Q, ColQ1a, with a Flag epitope after amino acid 26) (rat) (UniProt O35167); assay: pull-down; ColQ-Flag-coated beads incubated with purified ectoLRP4-Myc or purified ectoMuSK-Myc; data not shown; only the binder purified
[16] = target: ColQ-Flag (rat collagen Q, ColQ1a, with a Flag epitope after amino acid 26) (rat) (UniProt O35167); assay: pull-down; ColQ-Flag or ColQΔCt-Flag from HEK 293T lysates immobilised on protein G magnetic beads precoated with anti-Flag; incubated with conditioned media of HEK 293T cells containing the Myc-tagged ectodomains, 4 °C overnight; Western immunoblot
[17] = target: ColQ-Flag (rat collagen Q, ColQ1a, with a Flag epitope after amino acid 26) (rat) (UniProt O35167); assay: condition: also at much higher concentrations of ectoLRP6-Myc (Fig. 2B); pull-down; ColQ-Flag or ColQΔCt-Flag from HEK 293T lysates immobilised on protein G magnetic beads precoated with anti-Flag; incubated with conditioned media of HEK 293T cells containing the Myc-tagged ectodomains, 4 °C overnight; Western immunoblot
[18] = target: ColQ-Flag (rat collagen Q, ColQ1a, with a Flag epitope after amino acid 26) (rat) (UniProt O35167); assay: condition: also at a 10 times higher concentration (not shown); ELISA; plate-binding assay (modified ELISA): ColQ-Flag or AdipoQ-Flag from HEK 293T lysates immobilised on anti-Flag precoated wells; AP or AP fusion proteins in conditioned media (10 to 100 nM, equal AP activity) in TBS-0.05% Tween, 1 mM MgCl2, overnight at 4 °C; bound AP activity read with pNPP at …
[19] = target: ColQ-GFP (rat ColQ1a with a GFP tag after amino acid 20) (rat) (UniProt O35167); assay: co-IP; co-immunoprecipitation with ColQ-GFP, ColQ-Myc and nontagged LRP4 constructs; data not shown
[20] = target: T2, ColQ-Myc (mouse ColQ1a with a Myc tag at the COOH terminus) (mouse) (UniProt O35348); assay: as above
T2 sequence: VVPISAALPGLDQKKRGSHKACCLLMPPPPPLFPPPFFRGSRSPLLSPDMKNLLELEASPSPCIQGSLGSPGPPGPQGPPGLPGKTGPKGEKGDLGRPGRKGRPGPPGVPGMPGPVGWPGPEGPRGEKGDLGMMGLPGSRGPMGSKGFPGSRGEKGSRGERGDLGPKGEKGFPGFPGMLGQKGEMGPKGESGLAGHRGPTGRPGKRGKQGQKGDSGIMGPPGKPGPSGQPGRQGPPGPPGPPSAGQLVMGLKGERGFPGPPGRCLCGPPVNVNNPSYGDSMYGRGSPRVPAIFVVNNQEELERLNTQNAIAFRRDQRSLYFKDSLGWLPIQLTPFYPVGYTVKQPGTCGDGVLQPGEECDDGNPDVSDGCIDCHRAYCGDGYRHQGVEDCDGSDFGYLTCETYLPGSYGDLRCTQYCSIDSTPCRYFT

Substance: LRP4-Myc (rat low-density lipoprotein receptor-related protein 4 with a C-terminal Myc tag) (from UniProt Q9QYP1 21-1905)
binding [7]: binds | binding [8]: binds | binding [9]: binds

Substance: ectoLRP4-Myc (extracellular domain of rat LRP4 fused to one Myc tag followed by a 6xHis tag) (from UniProt Q9QYP1 21-1723) (domain or fragment)
binding [15]: binds | binding [16]: binds | binding [9]: binds

Substance: ectoLRP4Δ3-AP (mouse ectoLRP4-AP lacking amino acids 1048 to 1353, including the third β-propeller domain) (from UniProt Q8VI56 21-1725) (domain or fragment)
binding [14]: binds

Substance: ectoLRP4Δ234-AP (mouse ectoLRP4-AP with amino acids 737 to 1693 deleted) (from UniProt Q8VI56 21-1725) (domain or fragment)
binding [14]: binds

Substance: human placental alkaline phosphatase (AP) (from UniProt P05187 23-506) (enzyme)
binding [13]: no binding | binding [18]: no binding

Second part, the substance after the results:

binding [1]: binds | binding [2]: no binding (tested: 0.25 Ellman unit) | binding [3]: no binding (tested: 0.25 Ellman unit)
Substance: AChE-ColQ hetero-oligomers, A12 asymmetric forms (ColQ-Flag trimer with three AChE tetramers) (from UniProt O35167 23-458; P37136 32-614) (complex)

binding [4]: binds | binding [5]: binds
Substance: ColQ-Flag (rat collagen Q, ColQ1a, with a Flag epitope after amino acid 26) (from UniProt O35167 23-458)

binding [6]: binds
Substance: ColQ-Myc expressed from rAAV2-ColQ-Myc (human ColQ1a with a Myc tag after amino acid 24) (from UniProt Q9Y215 23-455)

binding [10]: binds | binding [11]: binds | binding [12]: binds | binding [13]: no binding | binding [14]: binds
Substance: ectoLRP4-AP (alkaline phosphatase-conjugated ectodomain of mouse LRP4) (from UniProt Q8VI56 21-1725) (domain or fragment)

binding [17]: no binding
Substance: ectoLRP6-Myc (human LRP6-Myc with the intracellular and transmembrane domains deleted) (from UniProt O75581 20-1370) (domain or fragment)

binding [19]: binds | binding [20]: binds
Substance: nontagged LRP4 (from UniProt Q9QYP1 21-1905) (receptor)
